In PubChem BioAssay AID1745845 (National Center for Advancing Translational Sciences (NCATS), 2022):
About 2,600 (0.72%) of roughly 360,000 compounds were called active. Inconclusive results, whose numbers are uncertain, are shown with a selection of clear calls. Calls follow the shape of the dose curve; as a rule, active = well fitted inhibition curve with a large enough effect; inconclusive = small, poorly fitted or top-dose-only effect; inactive = no such curve, though single readings can be large or run the other way. A potency beside an inconclusive call is a rough fit, not a confirmed value.

Experiment: Primary qHTS for Inhibitors of ATXN expression; also: nearly all actives have a fitted effect of over 55% in size
Settings: HEK-293 ATXN2-luciferase reporter, luminescence, 24 h; series mostly up to 57 µM
Summary of the method: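 ATXN2-luciferase reporter cells (luciferase flanked by upstream and downstream ATXN2 gene portions) were treated 24 h at 37 °C with compounds at up to 57 uM. SteadyGlo luminescence gave expression; GF-AFC fluorescence gave viability.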
Potency is read from the fitted curve at half-maximal effect; tags tell the direction and shape of the fitted curve.

| SMILES | Potency |
| --- | --- |
| N#Cc1cccc(OCCCN2CCC(C(O)(c3ccccc3)c3ccccc3)CC2)c1 | inconclusive: 31.6 µM [inhibitor, partial curve, poor fit] |
| Cc1ccc(Cl)c2sc(NC(=O)C3CC3)nc12 | inactive |
| Cc1cc(C)c(C)c(S(=O)(=O)N2CCC(C(=O)NNC(=O)c3ccccc3O)CC2)c1C | inconclusive: 11.2 µM [inhibitor, partial curve, poor fit] |
| CC1(C(=O)NS(=O)(=O)c2cccc(Cl)c2)CCN1C(=O)CC1CCCC1 (centres undefined) | inactive |
| C1=CCOCc2cc(ccc2OCCN2CCCC2)Nc2nccc(n2)-c2cccc(c2)OCC1 | active: 15.3 µM |
| Nn1cnnc1N/N=C\c1ccc(-c2ccccc2[N+](=O)[O-])o1 | inactive |
| COc1ccc(NS(=O)(=O)c2ccc3[nH]c4c(c3c2)CCCC4)cc1Cl | inconclusive: 25.1 µM [inhibitor, single point] |
| OC[C@H]1O[C@@H](n2cnc3c(NC4CCCC4)nc(Cl)nc32)[C@H](O)[C@@H]1O | inactive |
| CCCCCn1c(-c2ccc(OC)c(OC)c2)nc2ccccc21 | inconclusive: 39.8 µM [inhibitor, single point] |
| CN(C)S(=O)(=O)c1cccc(N=c2scc(-c3ccc4c(c3)NC(=O)CO4)n2CC2CCCO2)c1 (centres undefined) | inconclusive: 35.5 µM [inhibitor, single point] |
| COc1ccc(-n2c(O)c(/C=N/NS(=O)(=O)c3cc(C)ccc3C)c3ccccc3c2=O)cc1OC | inactive |
| O=C(Nc1ccc(S(=O)(=O)N2CCCC2)cc1)c1ccc([N+](=O)[O-])o1 | inconclusive: 37.7 µM [inhibitor, single point] |
| CCc1ccc(-n2c(Cc3ccccc3)nnc2SCc2nc(-c3cccs3)no2)cc1 | inconclusive: 39.8 µM [inhibitor, single point] |
| Cc1ccc(CNC(=O)C23CN(Cc4ccccc4)CC2C(c2ccc([N+](=O)[O-])cc2)=NO3)cc1 (centres undefined) | inactive |
| COc1cc(C(O)c2nc(/C=C/c3ccc(C(F)(F)F)cc3)cs2)ccc1F (centres undefined) | inconclusive: 39.8 µM [inhibitor, single point] |
| Cc1c(C(=O)Nc2nccs2)sc2nc(-c3cccs3)cc(C(F)(F)F)c12 | active: 25.1 µM |
| Cc1ccc(C(=O)NCC(=O)NCc2cc(=O)n(C)c(=O)n2C)cc1C | inactive |
| COC(=O)/C(=C/c1cccnc1)NC(=O)c1ccccc1 | inactive |
| COc1cc(Cl)c(C)cc1NC(=O)CNC(C)c1ccccc1OC (centres undefined) | inconclusive: 23.8 µM [inhibitor, partial curve, poor fit] |
| COCOCCn1cc(CN2CCS(=O)(=O)N(Cc3ccc(-c4ccccc4)cc3)C(C(C)C)C2=O)nn1 (centres undefined) | inconclusive: 28.2 µM [inhibitor, partial curve, poor fit] |
| O=C(Cn1cnc2ccccc21)N/N=C/C(Br)=C/c1ccccc1 | inconclusive: 31.6 µM [inhibitor, single point] |
| O=C(/C=C/N1CCOCC1)c1ccc(-c2ccccc2)cc1 | inactive |

| SMILES | Potency |
| --- | --- |
| COc1ccc(C2SCCN2S(=O)(=O)c2ccccc2)cc1 (centres undefined) | inconclusive: 26.7 µM [inhibitor, partial curve, poor fit] |
| O=c1[nH]cnc2sc(-c3ccccc3)cc12 | inactive |
| Cc1ccc(NS(=O)(=O)c2ccc3c(c2)CCCN3C(=O)C2CCC2)c(C)c1 | inconclusive: 35.5 µM [inhibitor, single point] |
| Cc1csc2nc(CNC(=O)C3CC=CCC3C(=O)O)cn12 (centres undefined) | inactive |
| CSc1cccc(NC(=O)c2ccc(CN3CCc4ccccc4C3)cc2)c1 | inconclusive: 8.91 µM [inhibitor, partial curve] |
| CCN(CC)CCCCNc1nc2cc(Cl)c(Cl)cc2nc1-c1ccc(-c2cccs2)s1 | active: 21.7 µM |
| CN(C)c1ccc(-c2nc3ccccn3c2/N=C/c2ccc(Br)cc2)cc1 | inconclusive: 11.2 µM [inhibitor, partial curve, poor fit] |
| CCOC(=O)c1cccc(NC(=O)NCc2ccc3c(c2)CCN3C(=O)c2ccccc2)c1 | inactive |
| Cc1ccc(C(=O)Nc2cccc(C(=O)NC3CCCCC3)c2)cc1 | inactive |
| COc1ccc([N+](=O)[O-])cc1/C=N/NC(=O)/C(=C\c1cccs1)NC(=O)c1ccccc1 | inconclusive: 31.6 µM [inhibitor, partial curve, poor fit] |
| Cc1ccccc1CSCC(=O)N/N=C/c1cccs1 | inactive |
| CCOc1ccc(/C=N/Nc2ccc(Cl)nn2)c(O)c1 | inconclusive: 0.178 µM [inhibitor, full curve, poor fit] |
| CC(=O)Oc1cc2c(s1)CCN(C(C(=O)C1CC1)c1ccccc1F)C2 (centres undefined) | inconclusive: 3.85 µM [inhibitor, full curve] |
| O=C1C=CC(=Nc2cccc3c2C(=O)c2ccccc2-3)O1 | inactive |
| Cc1cc(N2CCCCC2)nc2ccc(NC(=O)c3cccc(Cl)c3)cc12 | inconclusive: 17.8 µM [inhibitor, partial curve, poor fit] |
| Cc1cccc(C(=O)Nc2nc(C)c(C(=O)Nc3ccc4c(c3)CCC4)s2)c1 | inconclusive: 39.8 µM [inhibitor, single point] |
| O=C1NC[C@H](Cc2ccccc2)N(C[C@@H]2CCCN2C[C@H](Cc2ccccc2)N2C[C@H](Cc3ccccc3)N(CC3CCCCC3)C(=O)C2=O)C1=O | inconclusive: 39.8 µM [inhibitor, single point] |
| O=C(COC(=O)/C=C/c1ccc(F)cc1)NCc1ccco1 | inactive |
| CCC[C@@H](CNC)NC[C@H](Cc1ccccc1)NCCCCc1ccccc1 | active: 25.1 µM |
| CC1(C)CC(N2CCN(Cc3ccccc3)CC2)=CC(=[N+]2CCCCC2)C1 | inconclusive: 15.8 µM [inhibitor, partial curve] |
| CCOC(=O)c1c(NC(=O)C(Sc2ccccc2)c2ccccc2)sc(C(=O)N(C)C)c1C (centres undefined) | inconclusive: 35.5 µM [inhibitor, single point] |
| Cc1cc(CNC(=O)COc2cc(F)ccc2[N+](=O)[O-])c2ccccc2n1 | inactive |
